Experimental data: paper PMC2364705 (The Journal of Cell Biology, 2008)

B1: His-FH1FH2mDia2, wild type ([…]) (domain or fragment)
chain: not shown
B2: I704A His-FH1FH2mDia2 (domain or fragment)
chain: not shown
B3: K853A His-FH1FH2mDia2 (domain or fragment)
chain: not shown

What was measured:
SEC = molecular target: the molecule itself; assay: SEC
GST-APC-C (aa 2167-2843) = GST-APC-C (aa 2167-2843) (UniProt P25054 in part); assay: pull-down
Sequence of GST-APC-C (aa 2167-2843) (P25054 2167-2843): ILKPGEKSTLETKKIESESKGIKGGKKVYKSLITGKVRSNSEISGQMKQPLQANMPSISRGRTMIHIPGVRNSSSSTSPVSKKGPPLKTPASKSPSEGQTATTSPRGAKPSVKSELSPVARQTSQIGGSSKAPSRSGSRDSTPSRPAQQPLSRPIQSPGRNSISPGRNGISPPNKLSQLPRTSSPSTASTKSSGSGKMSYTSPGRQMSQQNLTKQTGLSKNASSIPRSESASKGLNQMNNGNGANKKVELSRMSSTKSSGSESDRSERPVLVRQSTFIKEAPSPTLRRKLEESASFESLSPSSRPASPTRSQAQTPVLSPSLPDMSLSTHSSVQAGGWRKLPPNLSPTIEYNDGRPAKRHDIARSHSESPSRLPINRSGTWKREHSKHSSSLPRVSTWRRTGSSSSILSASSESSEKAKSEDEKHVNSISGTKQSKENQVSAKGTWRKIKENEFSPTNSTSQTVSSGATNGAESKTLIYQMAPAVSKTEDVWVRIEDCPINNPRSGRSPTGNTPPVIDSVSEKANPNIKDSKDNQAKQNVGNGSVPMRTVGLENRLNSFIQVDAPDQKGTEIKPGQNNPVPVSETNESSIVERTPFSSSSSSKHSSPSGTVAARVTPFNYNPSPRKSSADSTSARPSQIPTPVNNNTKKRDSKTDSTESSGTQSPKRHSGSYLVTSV

Row | Binder | stoichiometry N (SEC) | binding result (GST-APC-C (aa 2167-2843))
1 | B1 | 2 | binds
2 | B2 | 2 | binds
3 | B3 | – | binds
